From patent US20180273573A1, “INHIBITORS OF MENAQUINONE BIOSYNTHESIS” (Memorial Sloan-Kettering Cancer Center, priority 2015, published 2018) come the findings set out here.

In experiment [1] the target is T1, R195K ecMenE (Escherichia coli, UniProt P37353, R195K). The procedure: (§1) Enzyme inhibition studies were performed using the MenE-MenB coupled reaction in which the MenE reaction is rate limiting (also described in Reference 1 and 2 which are incorporated herein by reference). Reaction mixtures contained OSB (60 μM), ATP (240 μM), CoA (240 μM), MtMenB (2.5 μM) and varying inhibitor concentrations (5-250 μM). Reactions were initiated by the addition of MenE (25 nM) and the production of DHNA-CoA was monitored at 392 nm (ε392 4000 M^−1 cm). Measurements were performed in triplicate for each compound.
T1 sequence (P37353 whole entry R195K): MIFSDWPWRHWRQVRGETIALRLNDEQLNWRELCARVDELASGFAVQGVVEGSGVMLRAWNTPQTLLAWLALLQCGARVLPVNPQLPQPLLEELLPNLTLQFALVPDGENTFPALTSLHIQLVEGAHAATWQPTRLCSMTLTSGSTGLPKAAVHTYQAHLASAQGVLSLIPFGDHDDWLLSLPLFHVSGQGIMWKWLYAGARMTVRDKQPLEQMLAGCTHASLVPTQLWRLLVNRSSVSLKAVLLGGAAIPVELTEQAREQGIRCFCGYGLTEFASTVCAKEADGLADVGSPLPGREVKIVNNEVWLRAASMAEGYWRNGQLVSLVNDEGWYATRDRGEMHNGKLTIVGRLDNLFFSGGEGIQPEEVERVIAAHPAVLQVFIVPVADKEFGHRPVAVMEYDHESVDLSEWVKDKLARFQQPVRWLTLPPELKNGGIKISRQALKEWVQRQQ
(§2) Analysis of the catalytic efficiency (kcat/KM) of the mutant enzymes compared to wild type MenE was performed using the MenE-MenB coupled assay described above.

Experiment [2] deals with T2, R195Q ecMenE (Escherichia coli, UniProt P37353, R195Q). The following applies: substrate OSB. The procedure: as §1, §2
T2 sequence (P37353 whole entry R195Q): as the sequence (P37353 whole entry R195K) above, with K195Q counted along it
Experiment [3] deals with T1, R195K ecMenE. The procedure:
(§3) To investigate the role of the conserved Arg in enzyme inhibition, the binding of OSB-AMS to ecMenE mutants by isothermal titration calorimetry (ITC). The direct binding of inhibitors to MenE was quantified using isothermal titration calorimetry (ITC). Measurements were made with a MicroCal VP-ITC instrument at 25° C. Inhibitor stock solutions (1 mM in NaHPO4 buffer pH 7.4 containing 150 mM NaCl and 1 mM MgCl2) were titrated in 4 μL increments into a 50 μM solution of MenE in pH 7.4 20 mM sodium phosphate buffer containing 150 mM sodium chloride and 1 mM magnesium chloride. The data were fit to a single binding site model with the Origin software package. […] The change in binding free energy (ΔΔG) is consistent with the removal of one (R195K) or two (R195Q) hydrogen bonds to the ligand consistent with the modeled structure in which the R195 guanadinium group makes two interactions with the OSB carboxylate, and thus also presumably with the carboxylate of OSB-AMS.
The source holds these as a separate data set.

Experiment [4] deals with T2, R195Q ecMenE. The procedure:
as §3

The mark [5] stands for this setting: change in binding free energy versus wild-type.

Turning to `O=C(O)CCC(=O)c1ccccc1C(=O)O` [OSB, o-succinylbenzoate], the Km (usually the concentration of substrate that gives half-maximal velocity) in experiment [1] (read-out: KM OSB, substrate OSB) was determined as 16 ± 1.4 µM. Further, in experiment [1] (substrate OSB), the kcat (as a rule, the number of substrate molecules converted per active site and unit of time at saturation) was 0.783 ± 0.005 s⁻¹. The “catalytic parameters (KM, kcat, kcat/KM)” value in experiment [2] was “Not Active”.

Take `Nc1ncnc2c1ncn2[C@@H]1O[C@H](COS(=O)(=O)NC(=O)CCC(=O)c2ccccc2C(=O)O)[C@@H](O)[C@H]1O` [OSB-AMS, o-succinylbenzoate-adenenosinemonosulfamate]: the Kd (as a rule, the free concentration of one partner at which half of the binding sites on the other are occupied at equilibrium, for simple one-to-one binding) in experiment [3] amounted to 394 ± 36 nM; in experiment [4], 4500 ± 112 nM. The ΔG was -8.8 kcal/mol in experiment [3] (ITC, 25° C., pH 7.4) and -7.3 kcal/mol in experiment [4] (ITC, 25° C., pH 7.4). The ΔH in experiment [3] (ITC, 25° C., pH 7.4) was -2.5 ± 0.2 kcal/mol; in experiment [4] (ITC, 25° C., pH 7.4) it was -3.1 ± 0.1 kcal/mol. Moreover, the “decrease of binding affinity to ecMenE by the mutation” value is on record as roughly 10 fold in experiment [3] (R195K versus wild-type, ITC) and roughly 100 fold in experiment [4] (R195Q versus wild-type, ITC). Moreover, the figures for the ΔΔG in experiment [3] (setting [5]) and in experiment [4] (setting [5]) were 1.2 kcal/mol and 2.7 kcal/mol, respectively.
